# Measured values reported in PubChem BioAssay AID463173 (ICCB-Longwood Screening Facility, Harvard Medical School, 2010).
# In all, about 52,000 compounds went through this assay and about 1,700 (3.3%) were called active. No stated cut-off is given here; in the data, active means survival mostly below about 52% (no sharp cut-off); inactive means mostly above about 56%. Some of the results follow.
# Tested on: Wild type
# Assay: growth inhibition of S. aureus wild type versus tarO mutant, primary screen, teichoic acid synthesis inhibitors, RN4220, OD600 (AID 463173)
# Details: S. aureus RN4220 wild type/DeltatarO growth, OD600, 18 h, active compounds read low, screened at 18.75 µg/mL (by protocol)
row,Compound,survival
1,COc1ccc(N2CCN(C(=O)c3ccc4c(Cl)c5c(nc4c3)CCCC5)CC2)cc1,inactive: 127%
2,COc1ccccc1C(=O)NC1=NC(c2ccc(Br)cc2)CC(=O)N1 (stereo not drawn),inactive: 50%
3,COc1ccccc1-c1nc(CNC(=O)Nc2ccccc2)c(C)o1,inactive: 68%
4,CCOc1ccc(-c2cc(C(=O)NCCc3ccc(Cl)cc3)c3ccccc3n2)cc1,inactive: 88%
5,COc1cc(-c2cc(OC)c3c(C)oc(C)c3c(=O)c2)ccc1OC(=O)c1ccccc1F,inactive: 77%
6,O=[N+]([O-])c1cc(-c2nc(-c3ccccc3)no2)ccc1NC1CCCC1,inactive: 107%
7,COc1ccc(CN2C(=O)N(c3ccc(C)cc3)C(=O)C2CC(=O)Nc2ccccc2)cc1OC (stereo not drawn),inactive: 87%
8,CCCc1cc(C(=O)Nc2c(C)nn(Cc3ccc(Cl)c(Cl)c3)c2C)no1,inactive: 62%
9,CS(=O)(=O)Nc1ccc(-c2nc3ccccc3s2)cc1,inactive: 66%
10,O=C(CSc1ncc2c(n1)-c1cc(Cl)ccc1N(Cc1ccccc1)S2(=O)=O)NCCc1ccccc1,inactive: 113%
11,CCOC(=O)COc1cc(C)c(Cl)cc1C(=O)c1ccn2nc(-c3ccc(OC)cc3)cc2n1,inactive: 72%
12,COc1ccc(NC(=O)c2cccn2-c2nnc(N3CCCCC3)s2)c(OC)c1,inactive: 73%
13,CC(NS(=O)(=O)c1ccc(Br)cc1)C(=O)NCc1ccco1 (stereo not drawn),inactive: 113%
14,CCc1nn(CC(=O)NCCc2ccc(OC)c(OC)c2)c(=O)c2cc3occc3n12,inactive: 147%
15,O=c1[nH]nc(SC(F)(F)C(F)(F)C(F)(F)F)c(=O)[nH]1,inactive: 68%
16,Cc1ccccc1N1C(S)=C(C#N)C(=O)NC1c1ccco1 (stereo not drawn),inactive: 113%
17,COc1ccccc1NC(=O)c1ccc(-c2nc(COc3ccc(C)cc3)c(C)o2)cc1,inactive: 84%
18,Cc1ccc(NC(=O)Nc2c(C)n(C)n(-c3ccccc3)c2=O)c(Cl)c1,inactive: 76%
19,CCOc1ccc(NC(=O)C2=C(C)C(=O)OC23CCC(C)CC3)cc1 (stereo not drawn),inactive: 71%
20,CCOC(=O)c1ccc(NC(=O)CSc2nc(-c3ccc(F)cc3)cc(C(F)(F)F)c2C#N)cc1,inactive: 90%
21,COc1ccc(C2CC(=O)c3cc(-c4nc(-c5ccc(C)cc5)cs4)c(=O)[nH]c3C2)cc1 (stereo not drawn),inactive: 82%
22,CC(C)c1ccc(NC(=O)Cc2ccc(NC(=O)N3CCCCc4ccccc43)cc2)cc1,inactive: 110%

row,Compound,survival
1,CCC1CN(C(=O)NCc2ccc(F)cc2)c2cc(Cl)ccc2O1 (stereo not drawn),inactive: 72%
2,CCOc1ccc2[nH]c(=O)c(CN(CC3COCCO3)C(=O)C3CC3)cc2c1 (stereo not drawn),inactive: 101%
3,CCOc1cccc(CNC(=O)c2ccc(N3CCCC3)c(NC(=O)Nc3ccccc3CC)c2)c1,inactive: 78%
4,CCOC(=O)c1c(C)[nH]c(C)c1S(=O)(=O)N(C)CC(=O)NCc1ccc(C)cc1,inactive: 67%
5,COc1ccc(NC(=O)C2CCCN(S(=O)(=O)c3c(C)[nH]c(=O)[nH]c3=O)C2)cc1 (stereo not drawn),inactive: 133%
6,CCCCOc1ccc(CNC(=O)CN2C(=O)CCn3nc(-c4cn(C)c5ccccc45)cc32)cc1,inactive: 73%
7,CCOc1ccc2nc(NCCCNC(=O)c3cc(OC)c(OC)c(OC)c3)c(C#N)cc2c1,inactive: 99%
8,COc1ccc(S(=O)(=O)NCCc2csc(-c3cccc(F)c3)n2)cc1OC,inactive: 89%
9,CCn1cc(S(=O)(=O)c2ccc(OC)cc2)c(=O)c2cc(F)c(N3CCCCCC3)cc21,inactive: 82%
10,COc1cc(OC)c(NC(=O)CC(C)S(=O)(=O)c2ccc3c(c2)NC(=O)CO3)cc1Cl (stereo not drawn),inactive: 67%
11,COc1ccc(-c2nn(-c3ccc(C)c(Cl)c3)c3c2cnc2cc(OC)c(OC)cc23)cc1,inactive: 128%
12,CCOc1ccc(/C=C/C(=O)Nc2sc3c(c2C(=O)OC)CCCC3)cc1,inactive: 112%
13,CCC(Oc1ccccc1)C(=O)Nc1cc(-c2ccccc2F)nn1-c1ccccc1 (stereo not drawn),inactive: 127%
14,CCN1CCN(c2nc3c(S(=O)(=O)c4ccc(C)cc4)nnn3c3ccsc23)CC1,inactive: 90%
15,CCN(CC)S(=O)(=O)c1ccc2c(c1)N(CC(=O)NCCc1ccccc1)C(=O)CO2,inactive: 77%
16,CC(C)Cc1nnc(NC(=O)CCCN2C(=O)CCC2=O)s1,inactive: 111%
17,CCOc1ccc2nc(N3CCCC(C(=O)Nc4ccc(CC)cc4)C3)sc2c1 (stereo not drawn),inactive: 64%
18,CCc1ccc2oc(-c3cccc(NC(=O)COc4ccccc4Cl)c3)nc2c1,inactive: 82%
19,CCC(CC)C(=O)Nc1nnc(C(C)(C)C)s1,inactive: 112%
20,CCN(CC)C(=O)c1ccc2c(c1)N(Cc1ccccc1F)C(=O)c1ccccc1S2=O (stereo not drawn),inactive: 134%
21,COc1cc(NC(=O)C(CC(C)C)N2Cc3ccccc3C2=O)cc(OC)c1 (stereo not drawn),inactive: 120%
22,CCOc1ccc(NC(=O)CSc2nc3ccsc3c(=O)n2CC)cc1,inactive: 72%

row,Compound,survival
1,CCCCOc1ccc(CNC(=O)c2cnc3sc(N4CCCCCC4)nn3c2=O)cc1,inactive: 91%
2,CCCCNC(=O)CCn1nc(-c2ccc(Cl)cc2)c2ccccc2c1=O,inactive: 81%
3,Cc1cccc(C(=O)n2nc(-c3cccnc3)nc2NCc2ccc(F)cc2)c1,inactive: 75%
4,Cc1c(C(=O)NCc2cccc(F)c2)oc2c1-c1[nH]ncc1CC2,inactive: 81%
5,Cc1ccc2sc(NC(=O)/C=C/C(=O)O)nc2c1,inactive: 112%
6,Cc1ccc(NC(=O)Cn2c(=O)nc(-c3ccccc3)c3ccccc32)cc1,inactive: 102%
7,Cn1c(=O)[nH]c(=O)c2c1nc(CN1CCN(c3ccccc3)CC1)n2Cc1c(F)cccc1Cl,inactive: 73%
8,Cc1cccc(NC(=O)c2ccc3[nH]c(C)cc(=O)c3c2)c1,inactive: 114%
9,CC(C)CCNC(=O)c1cc(-c2ccc(Br)s2)nc2ccccc12,inactive: 91%
10,COc1ccc(-c2cc(C)no2)cc1S(=O)(=O)N1CCCC(C)C1 (stereo not drawn),inactive: 81%
11,CCC(=O)N1CCc2cc(S(=O)(=O)NC(Cc3ccccc3)C(=O)NCc3ccccc3OC)ccc21 (stereo not drawn),inactive: 74%
12,CC(C)(C)c1ccc(C(=O)Nc2ccc(NC(=O)c3ccc(Cl)c(Cl)c3)cc2)cc1,inactive: 152%
13,COc1cccc(NC(=O)Nc2ccc3snnc3c2)c1,inactive: 85%
14,COc1cc([N+](=O)[O-])ccc1NC(=O)N1CCC2(CC1)Nc1ccccc1-n1cccc12,inactive: 32%
15,COc1ccc2cc3cc(C(=O)N4CCN(c5cccc(C(F)(F)F)c5)CC4)sc3nc2c1,inactive: 113%
16,CCn1cc(C(=O)NCCN(CC(C)C)CC(C)C)c(=O)c2cc(S(=O)(=O)N(C)C3CCCCC3)ccc21,inactive: 87%
17,COc1ccc(-c2nc3sc(CCNC(=O)C(=O)Nc4cc(F)ccc4F)c(C)n3n2)cc1,inactive: 55%
18,COc1ccccc1CNc1nc2ccccc2c2nc(-c3cccc(C)c3)nn12,active: 9%
19,Cc1cccc(CCNC(=O)c2cc3c(=O)[nH]c4ccc(C)cc4c3s2)c1,inactive: 66%
20,COc1ccc(NC(=O)c2nnn(CC(=O)Nc3cccc(C)c3C)c2N)c(OC)c1,inactive: 47%
21,Cn1c(=O)n(C)c2cc(N3CCOCC3)c(NC(=O)c3ccc(C(C)(C)C)cc3)cc21,inactive: 75%
22,CCOCCCn1c(SCC(=O)NCc2ccccc2)nc2c(sc3ccccc32)c1=O,active: -6%

row,Compound,survival
1,CC1CCN(c2ccc(C(=O)O)cc2)CC1,inactive: 107%
2,CCCCOc1ccccc1Cn1c(=O)sc2ccccc21,active: -4%
3,Cc1cccc(NC(=O)CN(C)S(=O)(=O)c2ccc3c(c2)CCC(=O)N3)c1C,inactive: 82%
4,Clc1cc2c(cc1C=Nc1ccc(N3CCOCC3)cc1)OCO2,inactive: 109%
5,CCOc1ccc(C(=O)Nc2cccc(NC(=O)c3ccc(Cl)cc3Cl)c2)cc1,inactive: 88%
6,CSc1ccc(CNC(=O)c2sc3ncnc(N(C)C4CCCCC4)c3c2C)cc1,inactive: 75%
7,Cc1cccc(C(=O)N2c3ncnn3C3(CCCCC3)[C@@H]3CCCC[C@@H]32)c1,inactive: 81%
8,Cc1ccc(Nc2nc3ccccc3nc2-n2nc(C)cc2C)c(Cl)c1,inactive: 88%
9,CCc1cccc(N2C(=O)CS(=O)(=O)C23C(=O)N(Cc2ccccc2)c2ccc(C)cc23)c1 (stereo not drawn),inactive: 77%
10,Cc1c(C(=O)Nc2ccc(F)cc2)oc2ccc(S(=O)(=O)N3CCCCCC3)cc12,inactive: 95%
11,Cc1cccc(Nc2cc(C)nc(-n3nc(C)cc3C)n2)c1,inactive: 56%
12,CCOc1ccc(CN2C(=O)C(=O)c3cccc(C)c32)cc1OC,inactive: 91%
13,O=C(CSc1nnc(COc2ccc(F)cc2)o1)N1c2ccccc2CCc2ccccc21,inactive: 115%
14,CCOC(=O)c1cnc2ccccc2c1NCCCO,inactive: 113%
15,CCOC(=O)c1cccc(NS(=O)(=O)c2ccc(-c3coc(C)n3)cc2)c1,inactive: 99%
16,COc1ccc(-c2cc(C(F)(F)F)n3ncc(-c4ccccc4)c3n2)cc1,inactive: 65%
17,COC(=O)c1ccc2c(=O)n(CCc3ccc(S(N)(=O)=O)cc3)c(SCC(=O)C(C)(C)C)nc2c1,inactive: 59%
18,CCOc1ccc2nc(NCCCNS(=O)(=O)c3ccccc3)c(C#N)cc2c1,inactive: 120%
19,COc1cc2c(cc1NC(=O)COc1ccc(Br)cc1)oc1ccccc12,inactive: 86%
20,Cc1cc(C)c(NC(=O)C2CCN(C(=O)N3CCOc4ccccc43)CC2)c(C)c1,inactive: 94%
21,Cc1ccc(-c2c3c(=O)n(C)c(=O)n(C)c3c3cnc4ccccc4n23)cc1,inactive: 125%
22,Cc1ccc(S(=O)(=O)CC(=O)Nc2nc3c(C)cccc3s2)cc1,inactive: 75%
